# Data as given in paper PMC12040169 (PLOS Biology, 2025).
# The other results are listed elsewhere or left out.
# Tested on: T1, C. trachomatis L2/434/Bu expressing GFP (CTL2-GFP)
# T1 construct: L2/434/Bu GFP intracellular growth in HeLa cells
# Parameters: species or system HeLa; C. trachomatis total inclusion area by high-content imaging, normalised to DMSO
# Settings: total inclusion area; 28.5 h, 10 µM; inhibitor
# In short: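 Post-fluorescence-read fixation, DNA staining with Hoechst and high-content imaging; GFP inclusion area and number per well, and nuclei counts, used as proxies for bacterial growth and host viability.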
row,SMILES,% of control remaining
1,COc1cc2c(cc1OC)C1(CCN(CCCC(F)(F)F)CC1)NC(=O)C2 [CBK039859],72.3856
2,CCCCn1c(SCc2nc(-c3ccncc3)no2)nc2ccsc2c1=O [CBK288576],100.695
3,Cc1cc(C(=O)C(C)Sc2nnc(N)s2)c(C)n1-c1ccccc1 (stereo not shown) [CBK297916],95.7039
4,N#C/C(=C\c1ccc2noc(-c3ccccc3)c2c1)c1nc(-c2cc3ccccc3oc2=O)cs1 [CBK267269],98.1864
5,CC(C)CNCC1CC(C(=O)N2CCC(Cc3ccccc3)CC2)=NO1 (stereo not shown) [CBK003718C],112.808
6,CCOC(=O)C1CCCN(c2c(C#N)cnc3ccc(Cl)cc23)C1 (stereo not shown) [CBK304405],52.6387
7,O=C(Nc1ccccc1C(=O)O)c1cc(S(=O)(=O)Nc2cccc([N+](=O)[O-])c2)ccc1Cl [CBK263234],65.6071
8,Cc1cc(NC(=O)c2ccc(S(=O)(=O)N3CCOCC3)cc2)nc2c1c(=O)oc1ccccc12 [CBK291134],104.801
9,O=C(NC(Sc1ncccn1)C(=O)c1ccccc1)c1ccccc1 (stereo not shown) [CBK025806],83.5281
10,c1ncc(OC2CCNC2)nc1OCCN1CCOCC1 (stereo not shown) [CBK077311T],105.72
11,O=S(=O)(Nc1cccc2[nH]ccc12)c1ccc(F)cc1F [CBK153546],101.74
12,COC(=O)c1cc(Cl)c2ccccc2n1 [CBK012428],103.188
13,CCC(=O)OC1(C(=O)c2ccc(F)cc2)CCN(CCCC(c2ccc(F)cc2)c2ccc(F)cc2)CC1 [CBK025227C],35.3446
14,CN1CCN(c2ccc(/C=c3\sc4nc5ccccc5n4c3=O)cc2[N+](=O)[O-])CC1 [CBK263048],82.1223
15,N#Cc1ccc(Oc2ccc3c(c2)-c2cc(Oc4ccc(C#N)c(C#N)c4)ccc2S3(=O)=O)cc1C#N [CBK261151],87.174
16,CC(=O)c1cccc(-c2ccc3c(c2)C(=O)NC2(CCN(C(=O)OC(C)(C)C)CC2)O3)c1 [CBK131969],77.7349
17,O=C1c2ccccc2CN1c1nccs1 [CBK113184],95.9635
18,Cc1onc(-c2ccccc2)c1C(=O)Nc1ccccc1N1CCCNCC1 [CBK038929T],91.6188
19,COc1ccc(C2c3cc(OC)c(OC)cc3CC(=O)N2c2ccc(C(=O)O)cc2)cc1OC (stereo not shown) [CBK296082],91.4407
20,COc1ccc(S(=O)(=O)N2CCC(C(=O)Nc3ccccc3SC)CC2)cc1C [CBK267960],107.503
21,c1ccc2c(c1)nnn2Cc1nnc2sc(-c3cnccn3)nn12 [CBK268393],112.362
22,CC(C)S(=O)(=O)n1c(=O)n(Cc2ccc(S(C)(=O)=O)cc2)c2ccccc21 [CBK106529],97.2004
23,COc1ccc(C(C)C)cc1-c1cn2ccnc2c(N(C)CCN(C)C)n1 [CBK066368],144.208
24,Cc1cccc([C@@H]2CN(Cc3ccccc3)C[C@]23CCCCC(=O)N3)n1 [CBK283341],124.083
25,O=C(O)CCn1cc(CN2CCOc3ccccc3C2)cn1 [CBK306507],51.8371
26,O=C(O)c1cccc(-c2ccc(/C=C\c3nc(O)c([N+](=O)[O-])c(=O)[nH]3)o2)c1 [CBK267209],79.1188
27,O=C(Cc1c[nH]cn1)N1CCN(C(=O)c2ccco2)CC1 [CBK144448],95.9333

row,SMILES,% of control remaining
1,CC1CCCN(c2ncnc3c2[nH]c2ccccc23)C1 (stereo not shown) [CBK287948],59.6401
2,Cc1noc(C2(O)CCN(CCc3ccc(F)c(F)c3)C2)n1 (stereo not shown) [CBK304753],101.018
3,CCOC(=O)Cc1nc2ccccc2[nH]1 [CBK261674],99.4597
4,c1ccc(COc2ccc(-n3cnnn3)cc2)nc1 [CBK288196],57.7495
5,N#Cc1ccccc1N1CCN(c2cncc(-c3ccc(F)cc3F)n2)CC1 [CBK065708],74.871
6,O=C1N(CCc2ccccc2)CC=CCC12CN(Cc1ccc3[nH]ccc3c1)CCO2 (stereo not shown) [CBK286130],93.2344
7,Cc1ccc(NC(=O)N2CCn3cccc3C2c2cccnc2)cc1 (stereo not shown) [CBK287733],94.8119
8,COc1ccccc1CN1CCc2[nH]c(=S)[nH]c(=O)c2C1 [CBK288495],82.3874
9,COc1ccc(CN2CCN(S(C)(=O)=O)CC2)c(OC)c1OC [CBK074491],81.0946
10,Cc1ccc(-c2nnn(CC(=O)N(CCO)C(C(=O)NC3CCCC3)c3ccc(F)cc3)n2)o1 (stereo not shown) [CBK084756],96.5054
11,CCN(CCCCC1NC(=O)NC1=O)Cc1ccncc1 (stereo not shown) [CBK143967],100.076
12,CCCCc1ccc(C(=O)CSc2nc(N)c(C#N)c(-c3ccc(O)cc3)c2C#N)cc1 [CBK261268],88.9262
13,Cc1nc2ccccc2nc1CSc1nnc(Cc2ccccc2)n1-c1ccccc1 [CBK268360],99.7022
14,CCn1c(SCC(=O)Nc2ccc(N3CCOCC3)cc2)nnc1-c1ccncc1 [CBK269765],96.5149
15,COC(=O)C(CCSC)NC(=O)c1cccs1 (stereo not shown) [CBK057972],46.4017
16,Cc1ccc(S(N)(=O)=O)cc1NC(=O)c1ccc(S(=O)(=O)N(C)C)cc1 [CBK266050],126.243
17,COc1ccc(C(C)C)cc1-c1cn2ccnc2c(NCc2ccco2)n1 [CBK037269],142.604
18,O=C(O)c1cccc(NS(=O)(=O)c2ccc(F)cc2F)c1 [CBK155084],107.702
19,CCOc1ccccc1C(=O)N1CCC(c2cc(C(=O)NC(C)C)c3ccccc3n2)C1 (stereo not shown) [CBK285918],120.489
20,O=C(NCCO)/C(=C\c1ccccc1)NC(=O)c1ccc(I)cc1 [CBK265162],106.973
21,Cc1ccc(Cl)cc1-n1cc(-c2ccc(Cl)cc2)nn1 [CBK113045],100.629
22,S=c1[nH]nc(CN2CCSCC2)n1-c1ccc(Cl)cc1 [CBK013868],123.223
23,CC(=O)N[C@H]1CO[C@H]2[C@@H]1OC[C@@H]2n1nnnc1-c1ccccc1 [CBK289483],95.6221
24,OCCN1CC2(CCN(Cc3ncc[nH]3)CC2)c2ccccc21 [CBK126763],108.709
25,Cc1ccc(C(=O)N2CN(C(=O)CN(C)CCN(C)C)CC2(C)C)cc1 [CBK091460C],105.479
26,CC(=O)NCCc1nc2ccccc2n1CCOc1ccc(Cl)cc1 [CBK269610],88.2026
27,CNC(=O)CC1SC(NC2CC3C=CC2C3)=NC1=O (stereo not shown) [CBK047491],80.6713

row,SMILES,% of control remaining
1,Cc1cc(NS(=O)(=O)c2ccc(NC(=O)CCCOc3ccc(Cl)cc3Cl)cc2)no1 [CBK297145],25.8354
2,COc1ccccc1NC(=O)NC(=O)C1CCN(C)CC1 [CBK034830],86.9128
3,N/C(CS(=O)(=O)Cc1ccc(F)cc1)=N/O [CBK010956],39.9522
4,c1cncc(CNc2nccnc2-c2ccsc2)c1 [CBK089314],88.0518
5,O=S(=O)(Nc1cc(OC2CCNCC2)c2occc2c1)c1c(Cl)cccc1Cl [CBK074989C],56.3083
6,c1ccc(COc2ccccc2-c2cc(N3CCN(c4ccccn4)CC3)ncn2)cc1 [CBK037793],100.997
7,CC1(C)COC(=O)N1C1CCN(C(=O)CNC(=O)c2cccs2)CC1 [CBK044501],99.5282
8,OCCN1CC2(CCN(CCc3cccc4ccccc34)CC2)c2ccccc21 [CBK137013],87.0849
9,O=C(NCCCn1ccnc1)c1cc(-c2cccc(Br)c2)nc2ccccc12 [CBK265476],8.937
10,Cc1ccc(S(=O)(=O)N=C2NCN(CC(=O)O)CN2)cc1 [CBK261983N],86.9761
11,N#Cc1cccnc1N1CCC(NC(=O)c2cc(Cl)c[nH]c2=O)CC1 [CBK306586],84.9004
12,O=C(CC1CCN(C(=O)Cc2ccccc2)CC1)Nc1nc2c(s1)CCCCC2 [CBK286001],105.518
13,Cn1c(CN2CCN(C(=O)NC3CCCCC3)CC2)nc2cc([N+](=O)[O-])ccc21 [CBK268266],76.0042
14,Cc1ccc(S(=O)(=O)OC[C@H]2O[C@@H](n3cc(C)c(=O)[nH]c3=O)C[C@H]2O)cc1 [CBK201165],121.494
15,Fc1ccc(C2=Nn3cnnc3SC2)c(F)c1 [CBK288078],84.4173
16,CCOC(=O)c1cccc(NS(=O)(=O)c2ccc(NC(C)=O)cc2)c1 [CBK034349],80.4611
17,COc1ccc2nc(C)cc(N3CCOCC3)c2c1 [CBK066896],97.2249
18,Cn1ncc2c1NC(=O)CC2c1c[nH]nc1-c1ccccc1 (stereo not shown) [CBK287941],61.7765
19,COc1ccc(Nc2cc(-c3ccco3)ncn2)cc1OC [CBK090822],93.209
20,O=C(CNC(=O)OCc1ccccc1)NCC(CCCN1CCN(c2ccccc2)CC1)(c1ccccc1)c1ccccc1 [CBK002293],75.735
21,Fc1cccc(F)c1-c1cc(Nc2ccc(N3CCOCC3)cc2)ncn1 [CBK037673],83.411
22,O=C(CN1C(=O)N2CCCN=C2c2ccccc21)NC1CCCCC1 [CBK284396],81.5774
23,Cc1c(Cl)cccc1NC(=S)N1CCC(C(N)=O)(N2CCCCC2)CC1 [CBK264900],105.311
24,CCOC(=O)c1c(NC(=O)CSc2nnc[nH]2)sc2c1CCCC2 [CBK265999],128.705
25,CN(C)c1nc2ccc(OCCN3CCOCC3)cc2s1 [CBK261135],104.123
